Source: the supplement of paper PMC10126150
Sequences with one replicate were seen in a single cluster, so their values are uncertain.

tested on: ATP; assay: switch fluorescence ratio, 500 uM ATP over buffer (Cy3 cluster intensity, sum of 5 cycles each) (fold (ratio)); higher = stronger signal-on switching upon ATP binding; sequences stand for … in TCGTCGGCAGCGTCAGATGTGTATAAGAGACAGTTTTTTTTTTTTTTTTTTTTTTTTT…TC; details: aptamer strand: ATP DNA aptamer (quencher-CACCTGGGGGAGTATTGCGGAGGAAGG + anchor), 100 nM annealed; ATP concentration: 500 uM; one replicate
Summary of the method: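 Clusters with intensities outside 100-1000 RFU were excluded. The remaining Cy3-labelled switching-strand clusters on a modified Illumina MiSeq flow-cell had been annealed to 100 nM quencher-labelled ATP aptamer and imaged in selection buffer, then after 15 min with 500 uM ATP at 22 °C, for five cycles separated by NaOH stripping and re-annealing. The fluorescence ratio, averaged per switch-domain sequence, is each cluster's summed target-cycle Cy3 intensity over its summed buffer-cycle Cy3 intensity.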
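Also: ATP exposure 15 min at 22 °C before imaging.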

Sequence	switch fluorescence ratio
TTGCAAGGAA	1.15
CAAATGACCG	1.07
AATCGGGACT	1.01
AATAACACGC	1.01
GGTGGTATGT	0.993
TACTCTACGA	1.37
GGACTGTAGC	1.12
AGGGACACGT	1.01
AGAGCCAAAA	1.02
CATCTGTGTT	1
ACAGTGCATA	1.06
ATCGTGAATT	0.951
TTGGGTCAGT	1.03
CACTTCTTC	0.97
TTACAGGGCG	1.03
CATTCGAGGG	0.973
TCAGCTTACG	1.07
TAGAGTCGTA	1.07
TGATACAGGG	0.998
AATCAGACCG	1.04
TTGAGGTCCA	0.997
CTCATTTCTG	0.988
AGGGTCATGT	1.03

Sequence	switch fluorescence ratio
TAGGTGTCTC	0.969
GGGTGACT	1.02
ATCCGATTCA	0.99
AAACGGACAC	1.23
ACTCGGGTTG	1
CCCACCGGCC	1.17
ATCTAATTGC	1.03
ACCGCGGAAA	1.03
ACATAGATGC	1.07
ACGGAAAGG	1.06
AGTTGTTCTA	0.984
AAAGCGCGAG	0.994
CGGTCTCGGG	0.966
TCGTTGCTTC	1.03
AAGAGGGCCA	0.994
TCCTGTAAAC	1.34
TCGGATGTAA	1.04
CGCATTCTTG	1.09
GCTTGAAGGT	0.971
CGACGAGGGC	1.78
AACCGCTCCC	1.52
GAGGTAAATG	1.03
ATCTAGACGA	1.02

Sequence	switch fluorescence ratio
CCCGGTGAGT	1.18
TTAGCTCGGT	1.01
AATCCCAGC	1.06
ATAGCAGGAT	1.05
ACGGTGCGTT	0.969
AAAGGTTCTC	0.962
TCCTAATCCC	1.05
TTGGAAAGGA	0.981
AACAGCGGGG	1.01
TCACCGGCTA	1.07
GCGTCAATCC	2.67
GGGTAGTGCC	1
AACTTATTT	0.993
TATTAATACT	0.935
GACCCCACTG	1.08
ACGGACTTG	1.05
TCCCTCACCG	1.02
TGTTAGACAG	1
GTTATTCTGC	1.02
TATGGTCGGA	0.96
TCGGGATGGA	0.994
GCTGTATTAG	0.97
CCACTTATTG	1.01

Sequence	switch fluorescence ratio
CGACTATCAC	1.3
TGCCGGTTAC	1.09
TATAAATACG	1
TTGGTTG	1.04
CAGACCTAAA	1.03
TTGGTTAGTC	0.986
CATTAGGCTT	0.987
AAACCGTTCC	2.75
ATTAGGGTCG	1.11
GGCTAGACC	1.04
ACAATAGGAG	1.07
GGGTGCAGCA	1.24
ATACGTTGGC	1.11
ACGAGAACCA	1.02
ATTTACTCTA	1.03
GCTACACTAT	1.08
GCTGTGGGCT	1.03
CGTTACGGT	0.985
TAGGACGGGA	1.01
CTGTTTATGC	0.954
TAGAAGTATG	1
CTTAGTTAAC	0.98
CACTTCTTGG	0.965

Sequence	switch fluorescence ratio
AGACACCCC	1.41
GAAGTTGCG	0.986
CTCCATTATT	1.03
CCTCTACGCA	3.12
TGACTGCCTT	1.03
ACGAGGCCAT	1.96
TGTAAAACTC	1
AAATCGGTTT	0.998
AGGCGGGTTT	0.976
TTCTATAGCC	1.01
AGGATAGTGG	0.969
AGACAAATA	0.961
TTGTCCTAGA	0.974
AGAGTAAAAG	0.992
ACCCGTCTGG	1.05
TTCGGATTAA	0.963
CCGGGTTAAT	1.13
TACCGCCGCA	1.28
GCTTGTTCT	0.992
ATCTGCCATT	1.01
TGAAAGCGCA	0.975
GATGACACGG	0.998
TGATTCTCGA	0.907

Sequence	switch fluorescence ratio
GTTACTCTTT	1.03
GACGTAGTTC	1.01
CCGTACTAGT	1.06
TTGCCGTTTT	1.14
TTCGCTAGCA	1.06
CAGTTGAGCT	1.02
TGGTTCATAA	1
TAAATTTAGA	0.97
CTAGAACGAA	1
GGGACTAGGA	0.969
TTAGCGATTG	1.43
TTGGGATAC	1.08
TACGGGACT	1.37
TCGGATAGC	1.02
GAATCGGCCT	1.04
CCAGGGACAA	1.1
GCTTCCCTGT	1.09
CTTTAACTCG	1
GAGGTCTATT	1.02
ATGGTGGCAA	1.06
GTGATCTATT	0.996
TGTAGGGTTT	1.01
CACGACAGGT	1.16

Sequence	switch fluorescence ratio
TAATTACACT	1.01
CCAGGCATTC	2.49
TAACTACTTG	1.03
ATAGTAAACC	0.992
TGATTACCGA	1.05
GGGCATTCCC	0.987
TACCTATGT	0.967
TGGTCAGGAC	0.994
CACTGGTGCA	1.16
ACTAGGAATT	1.03
CGGCCTTTTG	0.994
CTGAACTAAT	1.02
CGGCATTGCT	1.09
TTAACGCTAC	2.46
AAATGCATGA	0.974
GATGGTGGA	1.06
GCCGGACAAG	1.01
TGGATCACGA	1.03
AGCGCGATTG	1.03
